# Results published in the BET-seq Pho4 binding data (Le et al. 2018).
# Some of the results follow. These are noisy estimates, calculated here from bound and input reads.
# Target: T1, Pho4 (S. cerevisiae) (UniProt P07270)
# T1 sequence: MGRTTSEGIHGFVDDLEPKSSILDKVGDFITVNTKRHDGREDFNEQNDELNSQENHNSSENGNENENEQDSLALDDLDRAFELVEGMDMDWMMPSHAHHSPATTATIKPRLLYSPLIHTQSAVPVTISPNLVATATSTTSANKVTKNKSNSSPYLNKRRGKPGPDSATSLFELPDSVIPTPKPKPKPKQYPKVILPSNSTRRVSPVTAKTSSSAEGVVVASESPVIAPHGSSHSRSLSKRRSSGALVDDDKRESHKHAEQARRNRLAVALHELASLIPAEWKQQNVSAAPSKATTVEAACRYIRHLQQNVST
# Experiment: relative binding free energy (BET-seq); higher = weaker binding
# Conditions: reference: library average
row,Sequence,relative binding free energy
1,TGTAGCACGTGTAGGT,-0.1 kcal/mol
2,GTGAGCACGTGCTTTT,-0.07 kcal/mol
3,AATGTCACGTGAAATG,0.42 kcal/mol
4,GCGGGCACGTGAGTAT,0.05 kcal/mol
5,ATGAGCACGTGGGGCA,-0.38 kcal/mol
6,TGAAGCACGTGGAGAT,-0.02 kcal/mol
7,AGTCGCACGTGTTTTA,0 kcal/mol
8,CTGAGCACGTGATTGG,0.04 kcal/mol
9,GTGTTCACGTGATCGT,0.3 kcal/mol
10,TGTGACACGTGTGAAG,0 kcal/mol
11,GTTAGCACGTGTAATA,0.26 kcal/mol
12,TGGGTCACGTGGCATG,0.04 kcal/mol
13,AGTGGCACGTGTCCGT,-0.1 kcal/mol
14,AAGGTCACGTGGCTTA,0.02 kcal/mol
15,CAGGACACGTGAGGGT,0.2 kcal/mol
16,AGTATCACGTGTAGTT,0.17 kcal/mol
17,CGTTACACGTGGGCTG,-0.14 kcal/mol
18,CATGTCACGTGTATGT,-0.06 kcal/mol
19,GTTGTCACGTGTCATT,0.1 kcal/mol
20,CAAGACACGTGGTGTG,-0.09 kcal/mol
21,GTATGCACGTGGGATA,-0.07 kcal/mol
22,AGTTACACGTGGTCTG,-0.15 kcal/mol
23,TGGGACACGTGTGGGA,0.14 kcal/mol
24,AATTGCACGTGCGCGG,-0.08 kcal/mol
25,TTTGTCACGTGGTGGG,0.09 kcal/mol
26,AAAAGCACGTGTTTGT,-0.09 kcal/mol

row,Sequence,relative binding free energy
1,GCAGTCACGTGGGGGG,-0.01 kcal/mol
2,GGTAACACGTGGTGCA,0.01 kcal/mol
3,CCTGGCACGTGGGGAT,-0.2 kcal/mol
4,AGTTTCACGTGCTTGG,0.22 kcal/mol
5,TTCGGCACGTGGATAT,0.02 kcal/mol
6,ACTGTCACGTGGGTTC,0.03 kcal/mol
7,TTTTTCACGTGATTAA,0.36 kcal/mol
8,ATGTTCACGTGCTTTT,0.13 kcal/mol
9,TCATACACGTGTGGTT,0.07 kcal/mol
10,TTCGTCACGTGAGCTT,0.42 kcal/mol
11,GAGTGCACGTGGGGGT,-0.12 kcal/mol
12,AAGGACACGTGGGCGG,-0.18 kcal/mol
13,GTGGTCACGTGAATTA,0.43 kcal/mol
14,TGAACCACGTGAGTGT,0.14 kcal/mol
15,TTAATCACGTGGCAGG,0.08 kcal/mol
16,TAAGTCACGTGCGGGG,0.19 kcal/mol
17,TTAGTCACGTGCGGAT,0.05 kcal/mol
18,GTCAGCACGTGTGTGT,-0.04 kcal/mol
19,GGAGTCACGTGGTTCT,0.13 kcal/mol
20,GTTGGCACGTGATGCG,-0.13 kcal/mol
21,AACTGCACGTGTGGGC,0.18 kcal/mol
22,GTAGACACGTGGTTGC,-0.02 kcal/mol
23,GTTTTCACGTGGAAGA,0.4 kcal/mol
24,TTCCGCACGTGAGTGG,0.09 kcal/mol
25,TGTAGCACGTGGGGCA,-0.25 kcal/mol
26,AAAGGCACGTGCTGTA,-0.05 kcal/mol

row,Sequence,relative binding free energy
1,TTCAACACGTGTGTGT,0.04 kcal/mol
2,TTGTTCACGTGTATCT,0.19 kcal/mol
3,TAGTACACGTGAGTGT,0.21 kcal/mol
4,CGTATCACGTGGCGTG,0.1 kcal/mol
5,ATATACACGTGTGCGT,-0.08 kcal/mol
6,TTTGGCACGTGTGGAC,0.04 kcal/mol
7,GATGGCACGTGGATGG,0.03 kcal/mol
8,CTGGGCACGTGGGCAT,-0.2 kcal/mol
9,AGGTGCACGTGGGACC,-0.04 kcal/mol
10,GTCAGCACGTGAGTTA,0.16 kcal/mol
11,TGCTTCACGTGGGGTC,0.13 kcal/mol
12,GAGAGCACGTGAGTTT,0.14 kcal/mol
13,AGTTGCACGTGGCGAG,-0.11 kcal/mol
14,TGCTGCACGTGGTTCT,-0.09 kcal/mol
15,GTGCGCACGTGGTCTA,-0.01 kcal/mol
16,AGTGCCACGTGAGGAG,0.14 kcal/mol
17,CGTGCCACGTGTTTGT,0 kcal/mol
18,TTAAGCACGTGGTAAG,-0.13 kcal/mol
19,GGTGTCACGTGTCTAG,0.19 kcal/mol
20,TGCGACACGTGTGTAT,-0.01 kcal/mol
21,GGATACACGTGTTAGG,0.02 kcal/mol
22,TGGGTCACGTGGTCAA,0.02 kcal/mol
23,GGTGGCACGTGAATGA,0.19 kcal/mol
24,TGGGCCACGTGGTTTC,0.04 kcal/mol
25,GGATACACGTGTTTGG,0.18 kcal/mol
26,ATTGTCACGTGAAGTA,0.33 kcal/mol

row,Sequence,relative binding free energy
1,TTGGTCACGTGTGATG,0.19 kcal/mol
2,TAATTCACGTGGTTCG,0.21 kcal/mol
3,CAAGTCACGTGTGGCG,0.19 kcal/mol
4,TTCGTCACGTGCGGGA,-0.01 kcal/mol
5,GTGTGCACGTGACTTT,0.25 kcal/mol
6,ACGAGCACGTGGGTGA,-0.21 kcal/mol
7,GGGTGCACGTGGTCGG,-0.03 kcal/mol
8,GTTTTCACGTGTAGGC,0.37 kcal/mol
9,GGTTTCACGTGTAGTT,0.33 kcal/mol
10,AGGCTCACGTGGATGC,0.33 kcal/mol
11,GGTTGCACGTGTATGC,0.07 kcal/mol
12,GTGCTCACGTGTTTAG,0.16 kcal/mol
13,GTGTGCACGTGCTGGA,-0.05 kcal/mol
14,TTTTTCACGTGCCTTT,0.02 kcal/mol
15,ATTTCCACGTGTTTCT,0.16 kcal/mol
16,AGGGGCACGTGTGTCT,-0.04 kcal/mol
17,TGCGTCACGTGATATA,0.22 kcal/mol
18,TTTGTCACGTGACCTG,0.19 kcal/mol
19,TTCTTCACGTGGGGAG,0.21 kcal/mol
20,TCGGCCACGTGGGTGT,-0.21 kcal/mol
21,TTATACACGTGGGTCG,-0.18 kcal/mol
22,TTGTTCACGTGCCGGC,0.34 kcal/mol
23,CGTTTCACGTGTTCGG,0.23 kcal/mol
24,AGTCGCACGTGAGGCT,0.12 kcal/mol
25,AGTGTCACGTGCAATG,0.03 kcal/mol
26,TGTGTCACGTGTAACA,0.12 kcal/mol

row,Sequence,relative binding free energy
1,ATGGCCACGTGGGGCG,-0.33 kcal/mol
2,TATTTCACGTGCGGTG,0.14 kcal/mol
3,ACATTCACGTGTGGGC,0.42 kcal/mol
4,GTAGTCACGTGCAGGT,0.14 kcal/mol
5,TGTAGCACGTGTGGTC,-0.07 kcal/mol
6,TTCGGCACGTGTTTTT,-0.03 kcal/mol
7,GATGTCACGTGGATTG,0.3 kcal/mol
8,GGTGGCACGTGGGTTG,-0.05 kcal/mol
9,CTAATCACGTGTTAGG,0.17 kcal/mol
10,TAGGGCACGTGTCATT,-0.1 kcal/mol
11,CTAGTCACGTGATGGT,0.09 kcal/mol
12,AGTTGCACGTGTGGGC,0.08 kcal/mol
13,AACTGCACGTGGTGCG,-0.01 kcal/mol
14,AGTTTCACGTGAAAGC,0.48 kcal/mol
15,ATGTGCACGTGATACG,0 kcal/mol
16,AAGGTCACGTGTATAA,0.05 kcal/mol
17,GGAGCCACGTGAGTGG,0.15 kcal/mol
18,TAATCCACGTGTGGGG,-0.09 kcal/mol
19,GTGGCCACGTGAGGGT,0.15 kcal/mol
20,GTGGCCACGTGGTCGT,-0.09 kcal/mol
21,AGTGTCACGTGAAGGG,0.36 kcal/mol
22,TGGCTCACGTGGATAG,0.09 kcal/mol
23,AGATGCACGTGGCTGT,-0.24 kcal/mol
24,TTTAACACGTGCGTAG,-0.02 kcal/mol
25,GGTGGCACGTGGGCGC,-0.14 kcal/mol
26,AATTGCACGTGTTAGC,0.01 kcal/mol

row,Sequence,relative binding free energy
1,AGTGTCACGTGTATTG,0.02 kcal/mol
2,GAGTGCACGTGTAGTA,0.2 kcal/mol
3,AGGGGCACGTGGTTAG,-0.11 kcal/mol
4,CGTTACACGTGAGTGT,0.17 kcal/mol
5,CTTGGCACGTGTGTGC,-0.05 kcal/mol
6,TTTTGCACGTGGGCCT,-0.28 kcal/mol
7,CGCTGCACGTGGTTTG,-0.05 kcal/mol
8,CTTTGCACGTGTGGAA,0.03 kcal/mol
9,AATATCACGTGCTGGT,0.12 kcal/mol
10,GGCTACACGTGGGGAG,0.04 kcal/mol
11,AGGGACACGTGGGTAC,-0.23 kcal/mol
12,GGGAGCACGTGACAGG,0 kcal/mol
13,ATGTTCACGTGAGAGT,0.35 kcal/mol
14,GGGGGCACGTGTACAG,-0.09 kcal/mol
15,TTTAGCACGTGGGCGA,-0.32 kcal/mol
16,TTGTTCACGTGACCGG,0.43 kcal/mol
17,GGTTTCACGTGTCGAT,0.26 kcal/mol
18,GTGTACACGTGCGTCT,0.03 kcal/mol
19,GGGAGCACGTGAAGGT,0.25 kcal/mol
20,TATGTCACGTGGCGAG,-0.14 kcal/mol
21,GGCAGCACGTGTTAGT,0.07 kcal/mol
22,GGCGCCACGTGTAGGG,-0.08 kcal/mol
23,TACTTCACGTGGATGT,0.41 kcal/mol
24,TTTAGCACGTGGTCCG,-0.12 kcal/mol
25,GTCTTCACGTGGGTAA,0.25 kcal/mol
26,CTGGGCACGTGCTGGA,-0.11 kcal/mol

row,Sequence,relative binding free energy
1,TACGGCACGTGTTATT,-0.07 kcal/mol
2,TTCTGCACGTGTGAGG,0.07 kcal/mol
3,ACAGTCACGTGTTAGT,-0.04 kcal/mol
4,AGTTGCACGTGGGGAC,-0.06 kcal/mol
5,AGTCGCACGTGGGTCG,-0.2 kcal/mol
6,AGTGTCACGTGGCGTA,-0.1 kcal/mol
7,TAAGTCACGTGCGTAT,0.05 kcal/mol
8,TGGGCCACGTGGAATT,0.12 kcal/mol
9,CTCTTCACGTGTGAGT,0.31 kcal/mol
10,TGTATCACGTGGCGCG,0.1 kcal/mol
11,TGCTTCACGTGTCTGT,0.15 kcal/mol
12,GCTTGCACGTGGGTTA,-0.21 kcal/mol
13,CGTTTCACGTGAATGA,0.39 kcal/mol
14,TTAGTCACGTGGTTCT,-0.08 kcal/mol
15,TTTGGCACGTGGATCG,-0.11 kcal/mol
16,TGGCACACGTGGGTAG,-0.08 kcal/mol
17,GAGGTCACGTGGAGGC,0.03 kcal/mol
18,TTTAGCACGTGCTAGG,-0.16 kcal/mol
19,TCTTTCACGTGAAGTG,0.31 kcal/mol
20,GTGTGCACGTGAAGCT,0.08 kcal/mol
21,ATAAGCACGTGGTAAA,-0.08 kcal/mol
22,TGGCTCACGTGGGTAG,0.11 kcal/mol
23,TATGACACGTGATGTC,0.19 kcal/mol
24,TCGTCCACGTGTGGGG,-0.03 kcal/mol
25,AGTTGCACGTGGGCTC,-0.1 kcal/mol
26,TTTGACACGTGGCGCA,0.01 kcal/mol

row,Sequence,relative binding free energy
1,TGAAGCACGTGGTTGC,-0.17 kcal/mol
2,CATCTCACGTGGGGTG,0.04 kcal/mol
3,TTGGGCACGTGGTGTT,-0.07 kcal/mol
4,GCGGGCACGTGGGGCA,-0.2 kcal/mol
5,GCGGGCACGTGTTAAG,0 kcal/mol
6,AATGTCACGTGGAAAG,0.17 kcal/mol
7,TTCTTCACGTGGTAGT,0.25 kcal/mol
8,GATTTCACGTGAGGTC,0.53 kcal/mol
9,TTTCGCACGTGGTGGG,-0.13 kcal/mol
10,AGGATCACGTGTAGTT,0.1 kcal/mol
11,AGTTACACGTGTTAGG,0.06 kcal/mol
12,AGTTACACGTGGGTTC,-0.06 kcal/mol
13,TTCAGCACGTGTAGGG,-0.03 kcal/mol
14,TTTAGCACGTGAAGGG,0.33 kcal/mol
15,AGGAGCACGTGGCGCG,-0.19 kcal/mol
16,TAGGTCACGTGGGAAG,-0.01 kcal/mol
17,AGGAGCACGTGATTGG,0.13 kcal/mol
18,TATATCACGTGCTTTT,0.04 kcal/mol
19,TAGGTCACGTGGGAGT,0.06 kcal/mol
20,AGGTGCACGTGGTTGT,-0.07 kcal/mol
21,TGTACCACGTGTAAGG,0.04 kcal/mol
22,TGCGTCACGTGCAGGT,0 kcal/mol
23,TGAAGCACGTGGTGAG,-0.15 kcal/mol
24,GGGGGCACGTGGTACG,-0.26 kcal/mol
25,TGACGCACGTGGTGGC,-0.11 kcal/mol
26,ACGTTCACGTGTGGGA,0.37 kcal/mol

row,Sequence,relative binding free energy
1,CTTAACACGTGATGTT,0.04 kcal/mol
2,CTGTACACGTGGTAAG,0.07 kcal/mol
3,CGGGACACGTGGGGCG,-0.11 kcal/mol
4,GTATTCACGTGGTAGC,0.24 kcal/mol
5,TTAGTCACGTGTATGA,0.11 kcal/mol
6,TGAGCCACGTGGGTGG,-0.24 kcal/mol
7,GGGGTCACGTGTCCGA,0.18 kcal/mol
8,GACTTCACGTGGGGGT,0.21 kcal/mol
9,TGCATCACGTGGAGTA,0.09 kcal/mol
10,TATGCCACGTGATGTG,0.11 kcal/mol
11,ATCGGCACGTGTGGAT,-0.02 kcal/mol
12,TAGAGCACGTGGTCGT,-0.29 kcal/mol
13,TCGTGCACGTGTGGGA,-0.01 kcal/mol
14,TGTTTCACGTGTGATC,0.33 kcal/mol
15,AGGCTCACGTGGAGAT,0.32 kcal/mol
16,CTAGTCACGTGGTAAT,0 kcal/mol
17,AGGAACACGTGTGTGC,0.1 kcal/mol
18,CGGTGCACGTGTGTTT,0.01 kcal/mol
19,TTTTTCACGTGTGAGC,0.3 kcal/mol
20,CCTGGCACGTGTGGGG,-0.05 kcal/mol
21,GTTTGCACGTGAACTG,0.2 kcal/mol
22,TTTGGCACGTGTTCCG,-0.2 kcal/mol
